Where “and” joins values, the source holds several entries; their conditions need not be identical. Equal entries are not always repeated. Among all 16,000 compounds or so, about 40 (0.2%) were called active. About 1% were inconclusive and are not listed. Calls follow the shape of the dose curve; as a rule, active = well fitted activation curve with a large enough effect; inconclusive = small, poorly fitted or top-dose-only effect, or another doubt; inactive = no such curve, though single readings can be large or run the other way. This is one part of the list. Non-standard residues stand in square brackets, D forms with d. Residues, ends and D or L forms follow the SMILES beside them.
target: Rap guanine nucleotide exchange factor 4 (Homo sapiens) (UniProt Q8WZA2); assay: Validation qHTS for agonist of cAMP-regulated guanine nucleotide exchange factor 4 (EPAC2); settings: EPAC2 Rap1B BODIPY-GDP exchange, fluorescence; activation: active compounds read high;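 also: exchange makes BODIPY-GDP fluorescence drop when released from Rap1B; series mostly up to about 150 µM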
Chain of UniProt Q8WZA2 (Q8WZA2 whole entry, looked up): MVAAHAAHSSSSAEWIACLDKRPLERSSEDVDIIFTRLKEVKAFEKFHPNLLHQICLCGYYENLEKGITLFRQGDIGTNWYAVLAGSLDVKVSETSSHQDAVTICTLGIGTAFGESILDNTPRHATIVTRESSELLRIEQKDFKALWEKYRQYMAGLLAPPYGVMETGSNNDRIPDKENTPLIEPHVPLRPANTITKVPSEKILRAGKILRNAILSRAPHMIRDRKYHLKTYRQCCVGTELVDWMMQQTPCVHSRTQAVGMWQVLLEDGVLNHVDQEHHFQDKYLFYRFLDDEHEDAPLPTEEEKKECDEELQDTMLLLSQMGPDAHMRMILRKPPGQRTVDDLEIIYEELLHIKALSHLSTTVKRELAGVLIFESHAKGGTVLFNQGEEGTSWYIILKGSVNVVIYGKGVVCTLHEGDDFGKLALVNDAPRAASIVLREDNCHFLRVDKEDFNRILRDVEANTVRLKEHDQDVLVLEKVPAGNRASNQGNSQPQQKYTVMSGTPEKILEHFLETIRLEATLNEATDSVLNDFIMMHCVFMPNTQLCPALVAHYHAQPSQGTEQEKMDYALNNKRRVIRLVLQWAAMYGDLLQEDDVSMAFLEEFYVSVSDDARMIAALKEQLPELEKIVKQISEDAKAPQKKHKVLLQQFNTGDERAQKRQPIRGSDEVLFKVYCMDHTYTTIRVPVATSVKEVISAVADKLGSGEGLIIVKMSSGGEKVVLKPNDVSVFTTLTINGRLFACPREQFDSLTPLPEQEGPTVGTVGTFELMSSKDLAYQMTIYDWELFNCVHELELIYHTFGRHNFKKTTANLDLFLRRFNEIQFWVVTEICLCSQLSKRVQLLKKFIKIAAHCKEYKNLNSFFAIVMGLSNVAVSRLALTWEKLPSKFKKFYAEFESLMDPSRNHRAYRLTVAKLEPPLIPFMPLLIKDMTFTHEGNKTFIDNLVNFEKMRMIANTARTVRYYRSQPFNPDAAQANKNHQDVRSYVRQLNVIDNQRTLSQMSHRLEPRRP
Outline: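 Fluorescent exchange assay: 100 nM EPAC2 with 250 nM RAP1B-BODIPY-GDP and 50 uM GDP; compound added, 5 min at room temperature, then read (ex 480/em 540 nm) every 5 min for 30 min. Normalized to 6.5 mM cAMP agonist control.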
% is scaled to controls: 0 for no effect and ±100 for the full control effect.

activation, inactive:
COc1ccccc1-c1ccc2ncnc(NC3CCNCC3)c2c1 -0.645%
Cc1coc2c1C(=O)C(=O)c1c-2ccc2c1CCCC2(C)C -31.7% and 4.8% and -46.7%
COc1ccc(CN2Cc3ccccc3OC(c3ccccc3OC)C2)cc1O (configuration not stated) -19.3%
OC1(c2cccnc2)CCN(Cc2ccc3c(c2)CN(Cc2cccc(F)c2F)CCO3)CC1 1.51%
O=C(c1cccc(F)c1)N1CCC2(CC1)CCN(c1ccncc1)CC2 -6.65%
NCCNc1cccc2ccccc12 0.141%
CNCCCC12CCC(c3ccccc31)c1ccccc12 1.94% [middle of 4 runs]
C/C=C/c1ccc(OC(C)[C@@H](O)c2ccc(O)c(OC)c2)c(OC)c1 (some centres not stated) -20.9%
Cc1cccc(CNc2ncncc2-c2cccc(NS(C)(=O)=O)c2)c1 0.0124%
CC[C@H]1OC(=O)C[C@@H](O)[C@H](C)[C@@H](O[C@@H]2O[C@H](C)[C@@H](O)[C@H](N(C)C)[C@H]2O)[C@@H](CCN2C[C@H](C)C[C@H](C)C2)C[C@@H](C)C(=O)/C=C/C(C)=C/[C@@H]1CO[C@@H]1O[C@H](C)[C@@H](O)[C@@H](OC)[C@H]1OC -11.6%
Cc1ccccc1CN1CCc2nnc(C(C)NC(=O)c3cc(F)ccc3F)n2CC1 (configuration not stated) 3.19%
O=C1Cc2c([nH]c3ccc(Br)cc23)-c2ccccc2N1 -14.2% and -4.14%
O=C(/C=C/c1ccccc1)c1cccs1 1.65%
Cn1ncc(S(=O)(=O)Cc2ccccc2)c(Br)c1=O -30.5%
COC(=O)/C=C/c1ccccc1S(=O)(=O)NC(C)C -14.4%
CC(C)(C)[C@@H]1CCC(=O)N(CC[C@H](Sc2ccccc2)c2ccccc2)CC1 -14.2%
CCCCCCC(=O)OC1CC(C)(C)NC(C)(C)C1 3.42%
O=C1c2ccccc2CC[C@H]1CNCCc1ccc(O)cc1 -10.2%
O=C(/C=C/c1ccc2c(c1)OCO2)c1cccs1 10.5%
Oc1cc2c(cc1O)CN(C(=S)NCCc1ccc(Cl)cc1)CCC2 -7.66% and -21.6%
COCCn1c(=O)cnc2cnc(Oc3ccccc3)nc21 -6.96%
CCCCCC(=O)O[C@]1(C(C)=O)CC[C@H]2[C@@H]3CCC4=CC(=O)CC[C@]4(C)[C@H]3CC[C@@]21C -22.8%
Cc1oc(-c2ccccc2NC(=O)c2ccccc2)nc1CNC(=O)c1cccc(-n2cccn2)c1 -0.575%
Cc1c(C)c2c(c(C)c1OC(=O)CCC(=O)O)CC[C@@](C)(CCC[C@H](C)CCC[C@H](C)CCCC(C)C)O2 -43.1%
c1cncc(-c2nc(N3CCNCC3)c3ccccc3n2)c1 -27%
CC1(C)C[C@@H]1C(=O)N/C(=C\CCCCSC[C@H](N)C(=O)O)C(=O)O 1.68% and -1.7%
Cc1cc(Cn2cnc3c2C[C@@H](C(=O)O)N(C(=O)C(c2ccccc2)c2ccccc2)C3)ccc1N -35.2%
COc1ccc(C(=O)N2CCC3(CCCN(Cc4ccc(C#N)cc4)C3)CC2)cc1 -2.1%
COc1ccc(C(=O)N2CCC3(CC2)CCN(c2ccccc2)CC3)cc1 -14.3%
C[C@@H]1C[C@H]2[C@@H]3C[C@H](F)C4=CC(=O)C=C[C@]4(C)[C@@]3(Cl)[C@@H](O)C[C@]2(C)[C@H]1C(=O)COC(=O)C(C)(C)C 1.38%
CN(C)c1ncc2ncc(=O)n(C3CC3)c2n1 8.08%
CCNc1ncc2nc(-c3cccs3)c(=O)n(C)c2n1 -1.45%
CN1CCN(c2cc(-c3ccoc3)ncn2)CC1 -3.48%
NC[C@@H](O)c1ccc(O)c(O)c1 -21.5%
Cc1ccc(C(=O)Nc2cnn(-c3ccc(C(=O)NCc4nc(-c5ccccc5)n[nH]4)cc3)c2)c(C)c1 -11.2%
CCN1CCN(C(=O)NC(C(=O)NC2C(=O)N3C2SC(C)(C)C3C(=O)O)c2ccccc2)C(=O)C1=O (configuration not stated) 10%
COCCn1c(=O)c(-c2cccc(C#N)c2)nc2cnc(N3CCN(C)CC3)nc21 -16.1%
CC(C)CC1C(=O)N2CCCC2C2(O)O[C@@](NC(=O)C3C=C4c5cccc6[nH]c(Br)c(c56)CC4N(C)C3)(C(C)C)C(=O)N12 (some centres not stated) 3.16%
CN(C)c1ccc(-c2nc(N3CCNCC3)c3ccccc3n2)cc1 1.68%
C[C@@H](O)[C@H]1C(=O)N2C(C(=O)O)=C(S[C@@H]3CN[C@H](C(=O)N(C)C)C3)[C@H](C)[C@H]12 4.52%
CC(=O)NCC(=O)N[C@H](CCC(=O)O)C(=O)O (Ac-Gly-[dE]-OH) -10.8%
O=C(Nc1cccc(C(F)(F)F)c1)c1cc(Br)cc(Br)c1O -3.54%
CC1CCCCN1CCCOC(=O)c1ccccc1 (configuration not stated) -0.267%
CCCCCCCC/C=C\CCCCCCCC(=O)NCCO -37.2% and 0.752% and -40.5%
CC(=O)NCCNc1nc(-c2ccc(N(C)C)cc2)nc2ccccc12 -5.84%
CN(C)c1ncc2nc(CCc3ccccc3)c(=O)n(C[C@H]3CCCO3)c2n1 -6.53%
Cc1ccccc1-c1nc(-n2ccnc2)c2ccccc2n1 -3.02%
CC(C(O)c1ccccc1)N(C)CCOC(c1ccccc1)c1ccccc1 (configuration not stated) -16.4%
COc1ccc(NC(=O)N2CC3(CCN(C(=O)c4c(C)noc4C)CC3)C2)cc1 -11.9%
COc1ccccc1-c1ccc2ncnc(NC3CC3)c2c1 -7.06%
Cc1cc(C)cc(OCC2CNC(=O)O2)c1 (configuration not stated) -17.4%
CC(=O)O[C@H]1C[C@@H]2CC[C@@H]3[C@H](CC[C@@]4(C)[C@H]3C[C@H]([N+]3(C)CCCCC3)[C@@H]4OC(C)=O)[C@@]2(C)C[C@@H]1N1CCCCC1 -10.1%

From PubChem BioAssay AID1645887 (National Center for Advancing Translational Sciences (NCATS), 2021)
